For 40 compounds, cytotoxicity call results are on record in the antibiotic and cytotoxicity screens of Wong et al. (2023).

This is one part of the list.

The test system of one experiment is HSkMC (human skeletal muscle cells). Put plainly: cytotoxicity call (relative viability < 0.9). The settings on record: 10 µM.
`C[C@@H]1CCCCO[C@H](CN(C)Cc2ccc3c(c2)OCO3)[C@H](C)CN([C@@H](C)CO)C(=O)c2cc(NS(=O)(=O)c3ccc(Cl)cc3)ccc2O1`: the cytotoxicity call was “inactive”.

As to `CC(C)=CCCC(C)=CCO`, the cytotoxicity call was “inactive”.

Regarding `C[C@H](CO)N1C[C@H](C)[C@H](CN(C)Cc2ccc(C(=O)O)cc2)OCCCC[C@H](C)Oc2ccc(NS(=O)(=O)c3ccc(Cl)cc3)cc2C1=O`, the cytotoxicity call is “inactive”.

`CC(C)NC(=O)N(C)C[C@@H]1OCCCC[C@H](C)Oc2ccc(NC(=O)C3CCCCC3)cc2C(=O)N([C@H](C)CO)C[C@H]1C`: the cytotoxicity call is “inactive”.

As for `COc1ccc2c3c([nH]c2c1)[C@@H](CO)N(C[C@]13CN(CC2CCOCC2)C1)C(=O)Nc1c(noc1C)C`, the cytotoxicity call was “inactive”.

In the case of `Cc1noc(C)c1NC(=O)N(C)C[C@@H]1OCCCC[C@H](C)Oc2ccc(NS(=O)(=O)c3ccc(Cl)cc3)cc2C(=O)N([C@@H](C)CO)C[C@@H]1C`, the cytotoxicity call was “inactive”.

With `CO[C@H]1CN(C)C(=O)c2cc(NS(=O)(=O)c3cn(C)cn3)ccc2OC[C@@H](C)N(Cc2cccc(F)c2)C[C@@H]1C`, the cytotoxicity call was “inactive”.

As for `C[C@H](CO)N1C[C@H](C)[C@H](CN(C)C(=O)C2CCCCC2)OCCCC[C@H](C)Oc2ccc(NS(=O)(=O)c3ccc(Cl)cc3)cc2C1=O`, the cytotoxicity call is “inactive”.

Turning to `O=C(C[C@H]1NCCNC1=O)Nc1ccccc1`, the cytotoxicity call was “inactive”.

The subject of a further experiment is HepG2. As to the kind of experiment: cytotoxicity call (relative viability < 0.9). The settings on record: 10 µM.
Consider `CC(=O)NC(CCC(N)=O)C(=O)O` (centres undefined), for which the cytotoxicity call was “inactive”.

Take `COc1ccc(S(=O)(=O)N2C[C@@H](O)COC[C@H]3O[C@@H](CC(=O)NCc4ccc(Cl)c(Cl)c4)CC[C@@H]32)cc1`: the cytotoxicity call is “active”.

For the compound `C=CCN1C(=O)C[C@@H]2[C@@H]1CCN2c1cnccn1`, the cytotoxicity call was “inactive”.

For `C[C@@H]1CN([C@@H](C)CO)C(=O)Cc2cc(NC(=O)Nc3ccc(C(F)(F)F)cc3)ccc2O[C@@H]1CN(C)S(=O)(=O)c1ccc(Cl)cc1`, the cytotoxicity call was “active”.

Regarding `CC(C)NC(=O)N(C)C[C@H]1Oc2ccc(NS(=O)(=O)c3cn(C)cn3)cc2C(=O)N([C@H](C)CO)C[C@H]1C`, the cytotoxicity call was “inactive”.

Regarding `C[C@@H]1CN([C@H](C)CO)C(=O)Cc2cc(NC(=O)c3ccncc3)ccc2O[C@@H]1CN(C)S(=O)(=O)c1cccs1`, the cytotoxicity call is “inactive”.

For `CC(C)CCN1CCn2c(CO)nnc2C1`, the cytotoxicity call was “inactive”.

For `COc1cccc(NC(=O)C[C@H]2CC[C@@H]3[C@H](COc4ccc(NC(=O)C5CCOCC5)cc4C(=O)N3C)O2)c1`, the cytotoxicity call was “inactive”.

Take `CC1=C(/C=C/C(C)=C/C=C/C(C)=C/C=C/C=C(C)/C=C/C=C(C)/C=C/C2=C(C)C(=O)C(O)CC2(C)C)C(C)(C)CC(O)C1=O` (centres undefined): the cytotoxicity call was “inactive”.

For the compound `Cc1noc(C)c1S(=O)(=O)Nc1ccc2c(c1)CC(=O)N([C@@H](C)CO)C[C@H](C)[C@@H](CN(C)Cc1ccncc1)O2`, the cytotoxicity call was “inactive”.

Consider `CC(C)NC(=O)Nc1ccc2c(c1)CC(=O)N([C@H](C)CO)C[C@H](C)[C@@H](CN(C)Cc1ccc(Oc3ccccc3)cc1)O2`, for which the cytotoxicity call was “inactive”.

For `C/C=C/c1ccc2c(c1)O[C@@H](CN(C)S(=O)(=O)c1ccc(F)cc1)[C@@H](C)CN([C@@H](C)CO)S2(=O)=O`, the cytotoxicity call was “inactive”.

On to `COc1ccc(C#Cc2ccc3c(c2)[C@]2(C(=O)N3)[C@H](C(=O)N3CCN(c4ncccn4)CC3)[C@H]3C(=O)O[C@H](c4ccccc4)[C@H](c4ccccc4)N3[C@@H]2c2ccccc2OCCO)cc1`, for which the cytotoxicity call is “inactive”.

`NCCCN.O=C(O)C(O)C(O)C(=O)O` (centres undefined): the cytotoxicity call was “inactive”.

As to `C[C@@H]1CN([C@H](C)CO)C(=O)c2cccc(NC(=O)Nc3ccc(C(F)(F)F)cc3)c2O[C@H]1CN(C)Cc1ccncc1`, the cytotoxicity call is “inactive”.

For `C[C@@H]1CN([C@H](C)CO)C(=O)c2cc(NC(=O)Nc3ccc4c(c3)OCO4)ccc2O[C@@H](C)CCCCO[C@@H]1CN(C)Cc1ccc(C(=O)O)cc1`, the cytotoxicity call was “inactive”.

As to `CN(C)CCCNC(=O)C[C@H]1CC[C@@H]2[C@@H](COc3ccc(NS(C)(=O)=O)cc3C(=O)N2C)O1`, the cytotoxicity call was “inactive”.

For the compound `C[C@H]1CN([C@@H](C)CO)C(=O)Cc2cc(NS(=O)(=O)c3cccs3)ccc2O[C@@H]1CN(C)S(=O)(=O)c1ccccc1`, the cytotoxicity call was “inactive”.

With `CN(C)C(=O)c1cccc(-c2cccc(-c3nc(C(=O)NC4CCCCC4)cc4c3[C@H](CCO)N([S@@](=O)C(C)(C)C)C4)c2)c1`, the cytotoxicity call is “inactive”.

For the compound `C[C@@H]1CCCCO[C@H](CN(C)C(=O)Nc2ccc(F)cc2)[C@@H](C)CN([C@H](C)CO)C(=O)c2cc(NS(=O)(=O)c3cccs3)ccc2O1`, the cytotoxicity call was “inactive”.

With `COc1ccc2c3c(n(c2c1)C)[C@@H](CO)N(C[C@]13CCN(CC1)C(=O)CN(C)C)C(=O)C1CCCCC1`, the cytotoxicity call was “inactive”.

In the case of `O=C(C[C@H]1CC[C@H]2[C@@H](COC[C@H](O)CN2C(=O)c2cnccn2)O1)N1CCN(c2ccccc2)CC1`, the cytotoxicity call was “inactive”.

Consider `C[C@H](CO)N1C[C@H](C)[C@H](CN(C)C(=O)c2ccncc2)Oc2ncc(C#CC3CCCCC3)cc2C1=O`, for which the cytotoxicity call is “inactive”.

In the case of `Cc1noc(C)c1NC(=O)N(C)C[C@@H]1OCCCC[C@H](C)Oc2ccc(NC(=O)Cc3ccccc3)cc2C(=O)N([C@H](C)CO)C[C@H]1C`, the cytotoxicity call is “inactive”.

For the compound `COc1cccc2c1C(=O)c1c(O)c3c(c(O)c1C2=O)CC(O)(C(C)=O)CC3OC1CC(N)C(O)C(C)O1.Cl` (centres undefined), the cytotoxicity call was “active”.

On to `O/N=C/c1ccccc1C(F)(F)F`, for which the cytotoxicity call was “active”.

As for `Cn1c2c(c(=S)[nH]c1=O)CCC2`, the cytotoxicity call was “inactive”.

As to `O=C(C[C@H]1CC[C@H]2[C@@H](COC[C@H](O)CN2S(=O)(=O)c2ccccc2)O1)N[C@@H]1CCN(Cc2ccccc2)C1`, the cytotoxicity call is “inactive”.

Turning to `C[C@H]1CN([C@@H](C)CO)C(=O)c2cc(NC(=O)C3CC3)ccc2O[C@@H]1CN(C)C(=O)Nc1ccc2c(c1)OCO2`, the cytotoxicity call is “inactive”.

For the compound `C[C@@H]1CN([C@@H](C)CO)C(=O)c2cc(C#CC3(O)CCCC3)cnc2O[C@@H]1CN(C)C(=O)C1CCOCC1`, the cytotoxicity call is “inactive”.

On to `Cc1ccc(S(=O)(=O)N(C)C[C@@H]2Oc3ncc(Br)cc3C(=O)N([C@H](C)CO)C[C@H]2C)cc1`, for which the cytotoxicity call is “inactive”.

Regarding `C[C@@H]1CCCCO[C@H](CN(C)Cc2ccc3c(c2)OCO3)[C@H](C)CN([C@@H](C)CO)C(=O)c2cc(NS(=O)(=O)c3ccc(Cl)cc3)ccc2O1`, the cytotoxicity call is “active”.

Regarding `CC(C)=CCCC(C)=CCO`, the cytotoxicity call was “active”.

Turning to `C[C@H](CO)N1C[C@H](C)[C@H](CN(C)Cc2ccc(C(=O)O)cc2)OCCCC[C@H](C)Oc2ccc(NS(=O)(=O)c3ccc(Cl)cc3)cc2C1=O`, the cytotoxicity call was “inactive”.

In the case of `CC(C)NC(=O)N(C)C[C@@H]1OCCCC[C@H](C)Oc2ccc(NC(=O)C3CCCCC3)cc2C(=O)N([C@H](C)CO)C[C@H]1C`, the cytotoxicity call is “inactive”.

As to `COc1ccc2c3c([nH]c2c1)[C@@H](CO)N(C[C@]13CN(CC2CCOCC2)C1)C(=O)Nc1c(noc1C)C`, the cytotoxicity call was “inactive”.

With `Cc1noc(C)c1NC(=O)N(C)C[C@@H]1OCCCC[C@H](C)Oc2ccc(NS(=O)(=O)c3ccc(Cl)cc3)cc2C(=O)N([C@@H](C)CO)C[C@@H]1C`, the cytotoxicity call was “inactive”.

Turning to `CO[C@H]1CN(C)C(=O)c2cc(NS(=O)(=O)c3cn(C)cn3)ccc2OC[C@@H](C)N(Cc2cccc(F)c2)C[C@@H]1C`, the cytotoxicity call is “inactive”.

As for `C[C@H](CO)N1C[C@H](C)[C@H](CN(C)C(=O)C2CCCCC2)OCCCC[C@H](C)Oc2ccc(NS(=O)(=O)c3ccc(Cl)cc3)cc2C1=O`, the cytotoxicity call was “inactive”.

As to `O=C(C[C@H]1NCCNC1=O)Nc1ccccc1`, the cytotoxicity call was “inactive”.
